The whole screen tested about 310,000 compounds, of which about 14,000 (4.5%) showed an effect of 50% or more. Effects have a minus sign here. The list shows a part of the results.
biological target: human ether-à-go-go-related gene (hERG) potassium channel (human, UniProt Q12809); assay: primary screen, population patch clamp on CHO cells stably expressing hERG
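Also: peak tail current of the secondary pulse compared with the same well before compound.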

human ether-à-go-go-related gene (hERG) potassium channel, sequence (Q12809 whole entry, looked up): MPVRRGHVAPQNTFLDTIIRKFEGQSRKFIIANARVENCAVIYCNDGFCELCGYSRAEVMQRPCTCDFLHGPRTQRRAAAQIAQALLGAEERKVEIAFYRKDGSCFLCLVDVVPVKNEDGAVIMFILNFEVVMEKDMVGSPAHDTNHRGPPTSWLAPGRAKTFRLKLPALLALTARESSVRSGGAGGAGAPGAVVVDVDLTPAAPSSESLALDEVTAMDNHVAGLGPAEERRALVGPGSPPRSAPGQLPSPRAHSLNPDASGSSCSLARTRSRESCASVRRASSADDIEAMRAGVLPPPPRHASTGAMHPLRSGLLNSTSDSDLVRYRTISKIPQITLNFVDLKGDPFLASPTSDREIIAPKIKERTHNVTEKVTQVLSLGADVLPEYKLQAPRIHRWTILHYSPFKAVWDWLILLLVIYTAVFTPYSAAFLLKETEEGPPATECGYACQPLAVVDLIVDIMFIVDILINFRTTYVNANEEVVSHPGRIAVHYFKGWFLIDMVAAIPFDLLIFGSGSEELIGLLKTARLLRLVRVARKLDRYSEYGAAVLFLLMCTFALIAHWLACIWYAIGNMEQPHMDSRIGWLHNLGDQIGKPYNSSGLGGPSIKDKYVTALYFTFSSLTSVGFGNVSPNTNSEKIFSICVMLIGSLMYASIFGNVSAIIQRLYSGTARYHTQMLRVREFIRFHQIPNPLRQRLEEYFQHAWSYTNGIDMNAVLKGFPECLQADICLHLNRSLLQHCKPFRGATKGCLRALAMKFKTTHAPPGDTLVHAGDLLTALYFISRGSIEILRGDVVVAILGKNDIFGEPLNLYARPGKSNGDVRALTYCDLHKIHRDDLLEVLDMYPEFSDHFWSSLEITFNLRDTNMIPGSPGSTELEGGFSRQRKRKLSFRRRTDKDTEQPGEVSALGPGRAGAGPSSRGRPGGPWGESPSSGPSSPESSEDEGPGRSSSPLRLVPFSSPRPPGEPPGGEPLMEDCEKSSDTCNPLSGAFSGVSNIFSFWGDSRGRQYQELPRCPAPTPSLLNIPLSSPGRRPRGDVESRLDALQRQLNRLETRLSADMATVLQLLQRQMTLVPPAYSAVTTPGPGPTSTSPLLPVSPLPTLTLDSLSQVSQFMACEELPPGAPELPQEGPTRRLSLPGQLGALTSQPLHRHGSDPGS

Structure (SMILES)	hERG current change (%, negative = inhibition) at 10uM [%]
O=C(NCC1CCCO1)c1ccc(COc2ccccc2Br)cc1 (stereo not shown)	-32
COc1ccc(CCn2c(C)cc(C(=O)CSc3nnnn3C)c2C)cc1	0.08
Cc1nc2nc(-c3ccc(Cl)cc3)nn2c(C)c1Cl	8.82
S=c1[nH]nc(C23CC4CC(CC(C4)C2)C3)n1Cc1ccco1	-13.7
COC(=O)c1c(SCc2cccc3ccccc23)nc(=O)[nH]c1C	7.87
CN(C)Cc1c(C(=O)Nc2ccccc2)[nH]c2ccccc12	-30.1
Cc1ccc(-n2ccnc(SCC(=O)NC3CCCCC3)c2=O)cc1F	15.3
O=C1c2ccccc2C(=O)N1CC1c2ccccc2CCN1C(=O)CN1CCOCC1 (stereo not shown)	-24.3
CC(=O)NCCc1ccc(S(=O)(=O)Nc2cccnc2)cc1	17.2
O=C(NC1CCCCC1)N(Cc1nc2ccccc2c(=O)[nH]1)C1CCCCC1	2.79
CCOc1cccc(C(=O)Nc2ccccc2OC(F)F)c1	-23.8
CC(C)C[C@H](NC(=O)[C@H]1N2C(=O)c3ccccc3C2SC1(C)C)C(=O)N[C@@H](Cc1ccccc1)C(=O)O (stereo partly shown)	11.3
CC(=O)Nc1ccc(S(=O)(=O)NNC(=O)NC23CC4CC(CC(C4)C2)C3)cc1	11.4
CC(=O)Nc1ccc(NC(=O)CSc2nnc(NC(=O)C3CC3)s2)cc1	12.2
Cc1noc(C)c1S(=O)(=O)N1CCN(c2ccc([N+](=O)[O-])cc2)CC1	-69
C1CCCC(NC2=NCCO2)CCC1	16.3
O=C(CCc1nc2ccccc2s1)c1ccccc1	-4.47
CCCCC1=NN2C(=N)CC(=O)N=C2S1	11.9
CCc1ccc(S(=O)(=O)NCc2cn3ccccc3n2)s1	-11
Cc1cs/c(=N\N=C\c2cccc([N+](=O)[O-])c2)n1Cc1ccco1	15.1
CCOc1ccc(/C=C/C(=O)N2CCOCC2)cc1OC	1.23
CCS(=O)(=O)c1ccc(C(=O)Nc2cccc(Cl)c2)c(Cl)c1Cl	-3.97

Structure (SMILES)	hERG current change (%, negative = inhibition) at 10uM [%]
Cc1ccccc1CN1CCc2c(OCC(=O)N3CCCc4ccccc43)cccc2C1=O	3.93
COc1ccc(Cl)cc1-c1nc(SCC(=O)NCC2CCCO2)n[nH]1 (stereo not shown)	0.836
CCn1c(SCC(=O)NC(C)c2ccccc2)nc2ccccc21 (stereo not shown)	18
O=[N+]([O-])c1ccccc1Nc1ccc(O)cc1	6.97
CCn1c(SCC(=O)NC2CCCc3ccccc32)nnc1-c1cccs1 (stereo not shown)	-24.6
COc1ccc(NC2CCCN(C(=O)c3ccc(C)nc3)C2)cc1 (stereo not shown)	-10.7
CCCCCN(C(=O)CCC(=O)OCC(=O)N(C)Cc1ccc(C)cc1)c1c(N)n(CCCC)c(=O)[nH]c1=O	1.93
O=C(Oc1ccc2ccc(=O)oc2c1)N1CCOCC1	8.7
Cc1ccccc1NS(=O)(=O)c1ccc(C)c(NS(C)(=O)=O)c1C	16.8
CCN1c2ccccc2S(=O)(=O)c2ccccc21	0.294
O=C1CC(/C=C/c2ccco2)=Nc2ccccc2N1	5.64
Cc1ccc(N(C(=O)c2snc(C(N)=O)c2N)C(C(=O)NC2CCCC2)c2ccncc2)cc1 (stereo not shown)	-12
Cn1c(N)c(C(=O)c2cc(-c3ccccc3)nc3ccccc23)c(=O)n(C)c1=O	-3.5
COc1ccccc1N1C(=O)CC(c2ccccc2)CC1=O	8.09
O=C(c1cccc(F)c1)N1CCN(C(=O)C2CC2)CC1	14
Cc1ccc(NC(=O)c2ccc3c(c2)NC(=O)CS3)nc1	6.05
COc1cc(OC)cc(OC(=O)C2CCN(C(=O)c3ccc(F)cc3)CC2)c1	-7.47
Cc1cccc(NC(=O)CS(=O)CC(=O)Nc2cnc3ccccc3c2)c1C (stereo not shown)	2.45
O=C(OCC(=O)N1CCN(c2ccccc2)CC1)c1ccc2ncsc2c1	-21.5
CCO[C@H]1OC(C(N)=O)=C[C@@H](c2coc3ccccc3c2=O)[C@@H]1CCCO	0.643
CCOC(=O)N1CCC(Nc2c(OCC)c(=O)c2=O)CC1	3.96
O=C(Nc1scc(-c2cccs2)c1C(=O)O)c1cccs1	15

Structure (SMILES)	hERG current change (%, negative = inhibition) at 10uM [%]
O=C1/C(=C/c2ccc(Cl)cc2)SC(=S)N1CCC(=O)N1CCCCC1CCO (stereo not shown)	4.72
COc1ccc(C)cc1NC(=O)c1cc(S(=O)(=O)N2CCCC2)cn1C	-14.9
Cc1ccc(Nc2nnc(SCC(=O)NC(Cc3c[nH]c4ccccc34)C(=O)O)s2)cc1 (stereo not shown)	31.9
Cc1cccc(Nc2nc(N)nc(CN3CCN(Cc4ccc5c(c4)OCO5)CC3)n2)c1	-75.2
O=C(CCCC1=NS(=O)(=O)c2ccccc2N1)NCCc1ccc(Cl)cc1	11.6
Cc1ccccc1/C(N)=N/O	6.47
C/C(Cn1nnc2ccccc21)=N\NC(=O)c1cccc(Br)c1	-27.2
CC1=CCC2C(=O)N(c3ccc(N4CCOCC4)cc3)C(=O)C2C1 (stereo not shown)	1.26
COc1ccc([N+](=O)[O-])cc1N(CC(=O)NCCCOC(C)C)S(C)(=O)=O	13.3
CCCC/C=C1\CCc2c([nH]c3ccccc23)C1=O	10.1
COc1cc(C2Nc3ccc4ccccc4c3C3=C2C(=O)CC(C)(C)C3)ccc1OC(C)C(=O)O (stereo not shown)	14.1
C=CCNC(=O)c1ccc(C)c(Br)c1	-7.74
CC1=NN(c2ccccc2)C(=O)/C1=C/c1c(O)n(-c2ccc(F)c(Cl)c2)[nH]c1=O	31.4
O=C(c1cc2cc(Cl)ccc2[nH]1)N1CCN(C(=O)c2ccco2)CC1	-49.2
CCCn1nc(NC(=O)C2CCCO2)c2cc3cccc(C)c3nc21 (stereo not shown)	-0.731
O=C1NC(=O)N(c2ccc3c(c2)OCO3)C(=O)/C1=C\c1ccc(N2CCCCC2)o1	0.674
O=C(Oc1ccc(C(=S)N2CCOCC2)cc1)c1ccccc1	67.9
COc1ccccc1CCN=C(N)NS(=O)(=O)c1ccc(C)c(C)c1	9.37
O=[N+]([O-])c1cc(C(F)(F)F)ccc1N1CCN(S(=O)(=O)c2ccc3ccccc3c2)CC1	9.11
CC1CCCN(CCCNC(=O)C2CCCN(c3ncnc4c3nc3n4CCCCC3)C2)C1 (stereo not shown)	-4.72
COc1ccc(NS(=O)(=O)c2cc(NC(=O)C3CCCO3)ccc2N2CCCCC2)cc1 (stereo not shown)	7.98
O=S(=O)(Nc1ccccn1)c1ccc(Cl)cc1	-0.154

Structure (SMILES)	hERG current change (%, negative = inhibition) at 10uM [%]
Clc1ccccc1-c1nn2c(COc3ccccc3)nnc2s1	-20.6
S=c1[nH]nc(-c2cc(-c3ccccc3)n[nH]2)n1/N=C/C=C/c1ccccc1	20.7
COc1ccc(N2CCN(C(c3cc(OC)ccc3OC)c3nnnn3CC3CCCO3)CC2)cc1.Cl (stereo not shown)	-9.64
C/C(=N\NC(=O)c1cc(Br)ccc1O)c1cccc(NC(=O)c2ccccc2F)c1	24.6
COc1cc(C)c(CN2CCN(C(C)C(=O)NC(C)c3ccccc3)CC2)cc1OC (stereo not shown)	-18.3
Cc1cc(C(=O)Nc2ccncc2)c2ccccc2n1	23.2
O=C(Nc1ccc(N2C(=O)C3C4C=CC(C4)C3C2=O)cc1)Nc1cccnc1 (stereo not shown)	4.61
CCc1cccc(CC)c1NC(=O)CN1C2CCCC1CC(NC(=O)Nc1cccc(OC)c1)C2 (stereo not shown)	-7.7
Cn1c(SCCOc2cccc(Cl)c2)nnc1-c1ccncc1	-45.6
COc1ccc(C(=O)OCc2ccccc2F)cc1S(=O)(=O)N1CCCC1	-8.37
CC(C)(C)OC(=O)NCc1ccc(CNC(=O)c2nc[nH]c2C(=O)N2CCc3ccccc3C2)cc1	-19.5
COc1ccccc1NC(=O)CNC(=O)c1ccccc1	3.46
CCOc1cnn(-c2cc(Oc3ccc(C)cc3)ncn2)c(=O)c1Cl	-12.4
O=C(CN1CCC(n2nnc3cc(C(F)(F)F)ccc32)CC1)Nc1ccc2c(c1)OCCO2	-36.5
CCC1(C)Cc2c(sc3nc(SC)nc(N)c23)CO1 (stereo not shown)	-7.82
CCOC(=O)C1=C(C)N(C)C(=S)N(C)C1c1ccc(OC)cc1 (stereo not shown)	-10.5
COC(=O)CN1C(=S)N(c2ccc(F)cc2)C(=O)C1CC(=O)Nc1ccccc1 (stereo not shown)	-4.25
COc1cccc(C2CC(c3ccccc3)=NN2S(=O)(=O)c2ccc(C)cc2)c1OC (stereo not shown)	3.4
COc1ccc(N2CCN(C(=O)c3ccncc3)CC2)cc1	-32
CCOC(=O)N1CCN(C(=O)CSc2ccc(-c3ccncc3)nn2)CC1	-0.414
O=C(Nc1ccc(Cl)cc1N1CCOCC1)C1CC1	7.16
CC1CC(C)CN(CCCNC(=O)CC2Oc3ccccc3NC2=O)C1 (stereo not shown)	-10.1
